Source: US20130280222

Experiments:
Assay in all cases: cell_activity
[1] = system: GFP TALEN left (artificial); settings: gene addition (dNGFR donor) in mouse primary fibroblasts, as pair, 18 bp spacer
[2] = system: GFP TALEN right (artificial); settings: gene addition (dNGFR donor) in mouse primary fibroblasts, as pair, 18 bp spacer
[3] = biological target: beta-globin TALEN left (artificial) (UniProt Q56830); settings: Cel-I, alleles mutated in HEK-293T; as pair
[4] = biological target: beta-globin TALEN right (artificial) (UniProt Q56830); settings: Cel-I, alleles mutated in HEK-293T; as pair
[5] = system: gamma-globin TALEN right (artificial); settings: Cel-I, target sites mutated; as pair
[6] = biological target: gamma-globin TALEN left (artificial) (UniProt Q56830); settings: Cel-I, target sites mutated; as pair

TGCCCGAAGGCTACGT (double strand) [GFP TALEN left half-site (sense)]
activity [1]: 1.9%

TTGCCGTCGTCCTTGAAG (double strand) [GFP TALEN right half-site (antisense)]
activity [2]: 1.9%

human beta-globin locus, just 3' of sickle mutation
activity [3]: 27%
activity [4]: 27%

human gamma-globin locus
activity [5]: 44%
activity [6]: 44%
